In all, about 230,000 compounds went through this assay and about 3,600 (1.6%) were called active. This list was built around the results that the source calls inconclusive (neither active nor inactive); the mix of calls is not that of the screen. Calls come from the whole dose curve; as a rule, active = well fitted inhibition curve with a large enough effect (not every such curve was filed as active); inconclusive = small, poorly fitted or top-dose-only effect, or another doubt; inactive = no such curve, though single readings can be large or run the other way. Potencies beside an inconclusive call are fits to weak or partial responses and may not hold up.
Molecular target: Lysine-specific demethylase 4E (Homo sapiens) (UniProt B2RXH2)
Sequence of UniProt B2RXH2 (B2RXH2 whole entry, looked up, the tested form may be a part): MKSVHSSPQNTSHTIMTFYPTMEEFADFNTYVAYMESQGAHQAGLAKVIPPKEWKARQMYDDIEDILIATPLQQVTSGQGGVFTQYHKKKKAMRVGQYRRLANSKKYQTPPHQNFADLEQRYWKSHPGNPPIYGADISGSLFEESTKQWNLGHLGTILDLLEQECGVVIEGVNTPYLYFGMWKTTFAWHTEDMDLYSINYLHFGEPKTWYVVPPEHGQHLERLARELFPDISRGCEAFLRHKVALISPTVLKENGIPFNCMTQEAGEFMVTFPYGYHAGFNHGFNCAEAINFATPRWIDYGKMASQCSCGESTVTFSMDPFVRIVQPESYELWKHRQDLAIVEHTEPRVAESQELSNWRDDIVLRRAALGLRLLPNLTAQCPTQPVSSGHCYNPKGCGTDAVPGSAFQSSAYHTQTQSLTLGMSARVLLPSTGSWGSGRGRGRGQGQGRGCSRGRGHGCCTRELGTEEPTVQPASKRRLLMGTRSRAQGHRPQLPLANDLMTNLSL
Assay: qHTS Assay for Inhibitors of Human Jumonji Domain Containing 2E (JMJD2E)
Conditions: JMJD2E catalytic domain, FDH-coupled NADH fluorescence (FDH is formaldehyde dehydrogenase); series mostly up to 57.1 µM
Note: nearly all actives have a fitted effect of over 50% in size.
Potency is the fitted concentration of half-maximal effect; tags give direction and shape of the fitted curve.

SMILES	Potency
COC(=O)c1cc2c(C(F)(F)F)nn(C)c2s1	inactive
O=C(NCCCO)c1ccc2[nH]c3ccccc3c2c1	inconclusive: 31.6 µM [inhibitor, partial curve]
O=C(Nc1ccc2oc(-c3ccccc3F)nc2c1)c1ccc2c(c1)OCCO2	inconclusive: 31.6 µM [inhibitor, partial curve]
Cc1cccc(-n2ncc3c(NCc4ccccc4)ncnc32)c1	inconclusive: 31.6 µM [inhibitor, single point]
CSc1ccc(NC(=O)NCc2ccccc2)cc1	inactive
O=C(CCC1CCCC1)NC1CCCCC1	inactive
O=C(Nc1ccc(-c2nnn(CC(=O)N3CCN(C(=O)c4ccco4)CC3)n2)cc1)c1ccc(F)cc1	inconclusive: 39.8 µM [inhibitor, single point]
CCCOc1ccc(C2c3c(oc4cc(C)c(C)cc4c3=O)C(=O)N2CCCN2CCOCC2)cc1 (stereo not given)	inconclusive: 39.8 µM [inhibitor, single point]
COCCOC(=O)c1sc2nc[nH]c(=O)c2c1C	inconclusive: 35.5 µM [inhibitor, single point]
O=[N+]([O-])c1ccc(C2(O)CN(c3ccccc3)C3=[N+]2CCS3)cc1 (stereo not given)	inconclusive: 25.1 µM [inhibitor, single point]
O=C(Cn1nnc(-c2ccccc2NC(=O)c2ccccc2)n1)Nc1ccc2c(c1)OCCO2	inconclusive: 23.8 µM [inhibitor, partial curve]
NC(=O)c1ccc(C(F)(F)F)n(Cc2ccccc2Cl)c1=O	inactive
NC(=O)C1(N2CCCCC2)CCN(C(=O)c2cccn3c(=O)c4cc(Cl)ccc4nc23)CC1	inconclusive: 31.6 µM [inhibitor, partial curve]
COc1cccc(/C=N/NC(=O)C(=O)Nc2ccccc2OC(F)(F)C(F)F)c1O	inconclusive: 39.8 µM [inhibitor, single point]
Cc1ccc2nc(NC(=O)CN3C(=O)C4CC=CCC4C3=O)sc2c1 (stereo not given)	inactive
CCCS(=O)(=O)N1CCC(C(=O)NCCCOCC)CC1	inconclusive: 11.2 µM [inhibitor, partial curve]
Cc1cc(C(=O)OCC(=O)NC2CCS(=O)(=O)C2)c2ccccc2n1 (stereo not given)	inconclusive: 35.5 µM [inhibitor, single point]
N#C/C(=C/c1ccco1)C(N)=S	inconclusive: 35.5 µM [inhibitor, single point]
CCC(=O)Nc1nonc1-c1nc2ccccc2n1Cc1ccccc1	inconclusive: 35.5 µM [inhibitor, partial curve]
CCOCCCn1c(=N)c(C(N)=S)cc2c(=O)n3cccc(C)c3nc21	inconclusive: 25.1 µM [inhibitor, partial curve]
CS(=O)(=O)c1nc(-c2ccc(Br)cc2)cc(-c2ccccc2)c1C#N	inconclusive: 25.1 µM [inhibitor, single point]
COc1ccc(C(=O)/C=C2\NCC3c4ccccc4CCN3C2=O)cc1 (stereo not given)	inconclusive: 22.4 µM [inhibitor, single point]
COC(=O)Nc1nnc(-c2ccccc2Cl)s1	inconclusive: 31.6 µM [inhibitor, single point]

SMILES	Potency
Cc1noc(NS(=O)(=O)c2ccc(N/C=C/C(=O)c3ccc(F)cc3)cc2)c1C	inactive
CCOC(=O)c1cc2c(=O)n3ccccc3nc2n(CC2CCCO2)c1=NC(C)=O (stereo not given)	inconclusive: 3.16 µM [inhibitor, full curve]
O=C(Nc1ccc(-n2cnnn2)cc1)C1CCC1	inconclusive: 39.8 µM [inhibitor, single point]
CC(C)C(OC(=O)c1ccccc1)c1nccc2ccccc12 (stereo not given)	inactive
O=C(CN1CCCCC1)Nc1ccccc1Oc1ccccc1	inactive
COc1ccc(C2CC(c3ccccc3)=NN2c2ccc(S(N)(=O)=O)cc2)cc1OC (stereo not given)	inconclusive: 3.55 µM [inhibitor, full curve]
COc1ccccc1-c1cc(C(F)(F)F)nc(S(C)(=O)=O)n1	inconclusive: 31.6 µM [inhibitor, single point]
O=C(Nc1ccc(Cl)cc1)Nc1ccc(N2CCOCC2)cc1	inactive
COc1ccc2c(C)nc(N/C(N)=N/S(=O)(=O)c3ccc(C)cc3)nc2c1	inconclusive: 28.2 µM [inhibitor, partial curve]
COC(=O)c1c(C)[nH]c(C)c1-c1ccccc1Cl	inactive
CN(C)CCCN=Cc1c(O)n(Cc2ccccc2)c(=O)c2ccccc12	inconclusive: 28.2 µM [inhibitor, partial curve]
CCCCN(C(=S)NC(=O)c1ccccc1)c1c(N)n(Cc2ccccc2)c(=O)[nH]c1=O	inactive
COc1cccc(/C=C2/SC(=O)N(CC(=O)N3CCc4ccccc4C3)C2=O)c1OCC(=O)O	inactive
O=C(NC(C(=O)N/N=C/c1ccccn1)c1n[nH]c(=O)c2ccccc12)c1ccccc1 (stereo not given)	inactive
O=C(Nc1nc(-c2ccccc2)cs1)c1cccc(S(=O)(=O)N2CCN(Cc3ccccc3)CC2)c1	inconclusive: 22.4 µM [inhibitor, partial curve]
Cc1cc(=O)oc2cc(OCC(=O)c3ccc4c(c3)NC(=O)CO4)ccc12	inconclusive: 20 µM [inhibitor, partial curve]
CC(Cc1ccccc1)C(=O)NCCc1c[nH]c2ccccc12 (stereo not given)	inconclusive: 25.1 µM [inhibitor, single point]
CCOc1ccc(S(=O)(=O)NN)cc1	inactive
CC1CCCCN1CC(=O)Nc1sc2c(c1C#N)CCC2 (stereo not given)	inconclusive: 28.2 µM [inhibitor, single point]
O=C(COC(=O)c1n[nH]c2ccccc12)Nc1ccc(S(=O)(=O)N2CCCC2)cc1	inconclusive: 35.5 µM [inhibitor, single point]
C=CCCOc1ccccc1C(N)=O	inconclusive: 6.31 µM [inhibitor, full curve, poor fit]
CC(C)Cc1nc(C#N)c(N2CCC(C(N)=O)CC2)o1	inconclusive: 39.8 µM [inhibitor, single point]

Reference: PubChem BioAssay AID2147 (National Center for Advancing Translational Sciences (NCATS), 2009)
